Measurements as given in publication PMC4336329 (PLoS ONE, 2015).
About 2,200 (0.71%) of roughly 310,000 compounds showed an effect of 50% or more. The effect is printed as a negative number. Some of the results follow.

The molecules below were run against human ether-à-go-go-related gene (hERG) potassium channel (human, UniProt Q12809) (assay: primary screen, population patch clamp on CHO cells stably expressing hERG).
Sequence of human ether-à-go-go-related gene (hERG) potassium channel (Q12809 whole entry, looked up): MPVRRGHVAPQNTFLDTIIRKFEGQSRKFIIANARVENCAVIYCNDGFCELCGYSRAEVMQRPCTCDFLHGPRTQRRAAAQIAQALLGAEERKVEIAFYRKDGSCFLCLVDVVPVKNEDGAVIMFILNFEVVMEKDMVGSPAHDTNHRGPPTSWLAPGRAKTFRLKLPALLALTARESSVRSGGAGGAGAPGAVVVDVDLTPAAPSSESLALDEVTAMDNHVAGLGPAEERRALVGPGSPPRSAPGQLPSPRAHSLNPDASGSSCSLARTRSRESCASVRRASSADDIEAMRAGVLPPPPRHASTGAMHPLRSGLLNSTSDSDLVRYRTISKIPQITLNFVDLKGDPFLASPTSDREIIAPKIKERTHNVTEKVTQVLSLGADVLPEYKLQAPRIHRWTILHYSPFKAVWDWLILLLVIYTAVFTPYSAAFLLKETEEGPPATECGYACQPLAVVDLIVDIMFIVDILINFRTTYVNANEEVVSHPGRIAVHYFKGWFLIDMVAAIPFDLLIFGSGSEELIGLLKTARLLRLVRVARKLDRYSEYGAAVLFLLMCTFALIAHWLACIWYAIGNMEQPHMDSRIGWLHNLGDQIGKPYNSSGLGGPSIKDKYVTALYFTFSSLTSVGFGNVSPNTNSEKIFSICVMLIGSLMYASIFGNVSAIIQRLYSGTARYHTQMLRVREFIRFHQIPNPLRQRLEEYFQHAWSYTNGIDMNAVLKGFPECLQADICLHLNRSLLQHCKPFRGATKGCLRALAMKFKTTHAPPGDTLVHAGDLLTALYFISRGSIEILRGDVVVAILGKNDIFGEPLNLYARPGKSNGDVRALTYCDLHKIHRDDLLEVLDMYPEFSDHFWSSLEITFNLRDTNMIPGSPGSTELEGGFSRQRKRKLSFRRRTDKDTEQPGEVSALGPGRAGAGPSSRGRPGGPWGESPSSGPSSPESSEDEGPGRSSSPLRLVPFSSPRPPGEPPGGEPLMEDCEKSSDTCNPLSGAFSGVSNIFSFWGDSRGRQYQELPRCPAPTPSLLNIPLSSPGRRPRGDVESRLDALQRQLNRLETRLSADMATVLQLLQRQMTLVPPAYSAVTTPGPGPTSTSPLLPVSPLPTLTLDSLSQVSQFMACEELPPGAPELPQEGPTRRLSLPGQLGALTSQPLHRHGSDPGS

SMILES	hERG current change (%, negative = inhibition) at 1uM
O=C1NC(=O)N(Cc2ccco2)C(=O)/C1=C\c1cccn1CCOc1ccc(Cl)cc1	13.9%
O=C(COC(=O)COc1ccccc1[N+](=O)[O-])Nc1cccc(Br)c1	17.8%
O=C(C1Cc2ccccc2CN1S(=O)(=O)c1cccs1)N1CCCCCC1 (stereo not shown)	11.7%
Cn1c(=O)c2c(nc(N/N=C/c3ccc(OC(=O)c4ccco4)cc3)n2Cc2ccccc2)n(C)c1=O	2.03%
COc1ccc(CNC(=O)COc2ccc(Br)c(C)c2)cc1	6.54%
Cc1ccc(NS(=O)(=O)c2ccc(C(=O)N3CCOCC3)cc2)cc1	11.8%
COc1ccccc1CNC(=O)OCc1nccnc1C(=O)Nc1ccc(Br)cn1	-7.05%
Cc1ccc(NC(=O)Cn2c(=O)cnc3ccccc32)cc1S(=O)(=O)N(C)C	-2.24%
COc1ccc([C@H]2CC(=O)C=C(c3ccccc3OC)C2)cc1OC	10.7%
Cc1sc(-c2ccncc2)nc1OC(=O)c1cc(Cl)cc(Cl)c1	5.48%
CC(C)N1CCC(N2CCN(C/C=C/c3ccccc3)CC2CCO)CC1 (stereo not shown)	12.2%
COc1ccc(OC)c(NC(=O)CSc2nc(=O)n(Cc3ccccn3)c3c2CCC3)c1	-2.43%
OCC1OC(n2nc3ccccc3n2)C(O)C(O)C1O (stereo not shown)	12%
Cc1cc(C)n(CCCC(=O)O)n1	17.7%
Cc1ccc(C)c(NC(=O)CN(C)C(=O)c2ccc(S(=O)(=O)N3CCCCCC3)cc2)c1	11.3%
Cc1oc2ccc(OCc3ccc(Cl)cc3)cc2c1C(=O)O	10.4%
COc1cc2c(cc1OC)C(C)N(S(=O)(=O)c1cn(C)c(C)n1)CC2 (stereo not shown)	10.4%
C=CCn1c(=O)/c(=C/c2ccc(Cl)cc2)s/c1=C(/C#N)c1nnc2n1CCCCC2	6.08%
CCCCCOC(=O)C1=C(C)NC(=O)NC1c1ccccc1OCC (stereo not shown)	-2.12%
O=C(CSc1nnc(-c2ccccc2NC(=O)c2ccccc2)o1)OC1CCCCC1	-15.7%
Cc1cccc(C)c1NC(=O)CN(C)C(=O)/C=C/c1cccs1	10.5%
COc1ccc(CC(=O)NC2CCCc3ccccc32)cc1 (stereo not shown)	9.44%

SMILES	hERG current change (%, negative = inhibition) at 1uM
COc1ccc(/C(O)=C2/C(=O)C(=O)N(CCCN3CCOCC3)C2c2ccc(OC)cc2)cc1 (stereo not shown)	21.1%
COC(=O)C1(CCSC)NC(c2ccc(O)cc2)C2C(=O)N(c3ccc(F)cc3)C(=O)C21 (stereo not shown)	0.164%
CC1(C)CC2(CC(c3ccccc3F)c3cc(Cl)c(O)cc3O2)NC(=S)N1 (stereo not shown)	13.7%
COC(=O)c1oc2ccccc2c1NC(=O)c1ccccc1O	16.2%
O=C(NCc1ccc(Cl)cc1)C(=O)c1cn(CC(=O)N2CCOCC2)c2ccccc12	23.8%
Cc1ccc(S(=O)(=O)N(CCCO)Cc2cc3c(C)ccc(C)c3[nH]c2=O)cc1	-6.63%
CCOC(=O)C1=C(CN2CCOCC2)NC(=O)NC1c1cc(C)ccc1C (stereo not shown)	7.88%
CCC(=O)c1ccc(OCC(=O)N2CCN(S(=O)(=O)c3ccc(Cl)s3)CC2)cc1	-1.74%
O=C(/C=C/c1cc(Br)ccc1O)c1ccco1	13.5%
Cc1c(C(=O)Nc2nnc(C3CC3)s2)oc2c(Cl)cccc12	12.5%
O=C(c1ccco1)N1CCN(C(=O)N2CCOCC2)CC1	-2.46%
Clc1ccc(SCc2cn3ccccc3n2)cc1	13.1%
N/C(=N\OC(=O)c1cccnc1)c1ccccc1Cl	16.4%
CCNc1nc(NCC)n2c(SCC(=O)Nc3ccc(C)c(C)c3)nnc2n1	1.74%
Cc1ccc(-c2nc(CS(=O)CC(=O)N3CCN(c4ccccc4)CC3)c(C)o2)cc1 (stereo not shown)	6.49%
Cn1cc(Cl)c(C(=O)NNC(=S)NC2CCCCC2)n1	5.04%
O=S(=O)(c1ccc(Br)c2ccccc12)N1CCOCC1	14.4%
CCc1cccc(C)c1NC(=S)NCC1CCN(c2ccc(OC)cc2)C1 (stereo not shown)	6.21%
O=C1CSC(c2ccccc2[N+](=O)[O-])N1c1ccccc1 (stereo not shown)	16.2%
C/C(=N\NC(=S)NC1CCCCC1)c1ccc(C)o1	8.3%
CCOC(OCC)P(=O)(c1ccccc1)c1ccccc1	0.434%
CCCCCC(C)NC(=O)CN1C(=O)NC(C)(c2ccc3ccccc3c2)C1=O (stereo not shown)	13.7%

SMILES	hERG current change (%, negative = inhibition) at 1uM
CCc1ccccc1NC(=O)CSc1nnc(CNC(=O)c2ccco2)n1C	13%
CC(=O)NCCNc1ccc([N+](=O)[O-])cn1	6.56%
COc1ccc(Cc2c(O)nc(SCC(=O)NC34CC5CC(CC(C5)C3)C4)[nH]c2=O)cc1	15.3%
COc1ccc(N(CC(=O)N2CCCCCC2)S(=O)(=O)c2ccc(OC)c(OC)c2)cc1	8.15%
CC1CCCCC1NC(=O)CSCC(=O)O (stereo not shown)	7.14%
Cc1nn(Cc2ccccc2Cl)c(Cl)c1/C=C/C(=O)OCC(=O)NC1CCS(=O)(=O)C1 (stereo not shown)	15.3%
CS(=O)(=O)c1ccc2nc(NC(NC(=O)c3ccco3)(C(F)(F)F)C(F)(F)F)sc2c1	-10.8%
O=C(CC1COc2ccccc2O1)NCc1ccccc1 (stereo not shown)	-9.82%
CCOC(=O)N1CCN(C(=O)C2CC(=O)N(c3ccc(C)cc3)C2)CC1 (stereo not shown)	-18.5%
CN(CCc1nc2ccccc2[nH]1)Cc1nc(CC2CC2)no1	6.57%
Cc1onc(-c2ccccc2)c1C(=O)N(Cc1ccccn1)Cc1ccccn1	-2.84%
Cn1cc([N+](=O)[O-])c(C(=O)NCc2ccccc2)n1	11.1%
CCOC(=O)Cn1nnnc1C(CC)N(Cc1cccs1)Cc1cc2ccc(OC)cc2[nH]c1=O (stereo not shown)	-6.95%
O=C(Cn1cc(SCc2ccccc2Cl)c2ccccc21)N1CCOCC1	4.12%
CCOc1ccc(-c2nc(C#N)c(N3CCN(C)CC3)o2)cc1	-2.87%
Cc1csc(NC(=O)c2cc(-c3ccccc3)nc3ccccc23)n1	-3.23%
COc1ccc(-n2nc(C(=O)NCC(=O)N3CCN(Cc4ccccc4)CC3)c3ccccc3c2=O)c(OC)c1	4.15%
Cc1ccc(Nc2ccc3nonc3c2[N+](=O)[O-])cc1	3.43%
Cc1ccc(NCc2n[nH]c(=S)n2-c2ccccc2)cc1Cl	6.19%
CC(=O)Nc1ccc(S(=O)(=O)N2CCN=C2SCc2ccc([N+](=O)[O-])cc2)cc1	-4.86%
C/C(CC(=O)Nc1ccc(OCc2ccccc2)cc1)=N\NC(=O)C(=O)Nc1ccccc1C	12%
CC(C)N1C(=O)N(c2ccc(Cl)cc2)C(C)(O)CC1(C)C (stereo not shown)	13.3%

SMILES	hERG current change (%, negative = inhibition) at 1uM
Cc1cc(N2CCOCC2)n2cc(-c3ccc(F)cc3)nc2n1	-34.9%
CCOC(=O)c1ccc(Nc2cc(C)nc3nc(C)nn23)cc1	-24.3%
Cc1ccccc1-c1nnc(SCC(=O)NC2CCCCC2)o1	7.02%
COC(=O)/C=C1\S/C(=N/NC(=O)c2ccc(OC)cc2)NC1=O	14.4%
CCOc1ccc(Br)cc1S(=O)(=O)Nc1ccc(NC(=O)c2ccccc2F)cc1	8.75%
CC(C)(C)N(NC(=O)Nc1ccc(Cl)cc1)C(=O)c1ccccc1	-0.642%
O=C(NC1CCCC1)C1CC(=O)N(c2ccccc2)C1 (stereo not shown)	19.8%
COC(=O)c1sc2ccccc2c1N	5.18%
O=C(CSc1nnc(NC(=O)c2c(F)cccc2F)s1)NC1CCCC1	13.2%
C#CCOC(=O)/C(=C/c1ccc(F)cc1)NC(C)=O	-1.96%
O=C1CN(C(=O)c2ccc(Cl)c([N+](=O)[O-])c2)c2ccccc2N1	13.2%
Cc1ccc2c(c1)NC(=O)C(CC(=O)NCCCN1CCCC1=O)O2 (stereo not shown)	9.03%
CSc1nnc(SCC(=O)N(C)c2c(N)n(Cc3ccccc3)c(=O)[nH]c2=O)s1	12.4%
CCOC(=O)CN(C(=O)CSc1nnc(CNc2ccc(F)cc2)o1)c1ccccc1	7.53%
Cc1nc2ccccc2c(=O)n1C1CCCCCC1	2.13%
Cc1[nH]n(-c2ccccc2)c(=O)c1N=Nc1ccccc1C(=O)N1CCCCC1	20.3%
CCN(CC)S(=O)(=O)c1ccc(/C=C/C(=O)OCC(=O)Nc2cccc3ccccc23)cc1	13.3%
CCOC(=O)c1sc(Nc2nc(OC)cc(OC)n2)nc1C	7.92%
CSc1nc(SCC(=O)NCC2CCCO2)c2c3c(sc2n1)CN(C)CC3 (stereo not shown)	12.3%
CCN(CC)c1ccc(C(=O)N/N=C(\C)c2cccnc2)cc1	1.72%
Cc1csc2nc(O)c(C(=O)NC3CCCCCC3)c(=O)n12	18.7%
CCN1CCN(S(=O)(=O)c2ccc(Cl)c(C(=O)Nc3nnc(C)s3)c2)CC1	10.9%
